A word on the Ki: it is a measure of affinity in units of concentration, obtained from inhibition or displacement.

The target of one assay is Recombinant heterodimeric HCV NS3/NS4A protease (strain 1a) (Hepatitis C virus genotype 1a, UniProt P27958). Put plainly: Spectrophotometric assay for HCV serine protease inhibitory activity (chromogenic ester substrates). In kind it is biochemical. Particulars: Table 3, sulfide compounds; HCV serine protease; read-out: Ki* range. The text has this: Assay for HCV Protease Inhibitory Activity:
Spectrophotometric Assay: Spectrophotometric assay for the HCV serine protease can be performed on the inventive compounds by following the procedure described by R. Zhang et al, Analytical Biochemistry, 270 (1999) 268-275, the disclosure of which is incorporated herein by reference. The assay based on the proteolysis of chromogenic ester substrates is suitable for the continuous monitoring of HCV NS3 protease activity. The substrates are derived from the P side of the NS5A-NS5B junction sequence (Ac-DTEDWX(Nva), where X=A or P) whose C-terminal carboxyl groups are esterified with one of four different chromophoric alcohols (3- or 4-nitrophenol, 7-hydroxy-4-methyl-coumarin, or 4-phenylazophenol).
Protein concentrations are determined by the Biorad dye method using recombinant HCV protease standards previously quantified by amino acid analysis. Prior to assay initiation, the enzyme storage buffer (50 mM sodium phosphate pH 8.0, 300 mM NaCl, 10% glycerol, 0.05% lauryl maltoside and 10 mM DTT) is exchanged for the assay buffer (25 mM MOPS pH 6.5, 300 mM NaCl, 10% glycerol, 0.05% lauryl maltoside, 5 μM EDTA and 5 μM DTT) utilizing a Biorad Bio-Spin P-6 prepacked column.
Protease Assay: HCV protease assays are performed at 30° C. using a 200 μl reaction mix in a 96-well microtiter plate. Assay buffer conditions (25 mM MOPS pH 6.5, 300 mM NaCl, 10% glycerol, 0.05% lauryl maltoside, 5 μM EDTA and 5 μM DTT) are optimized for the NS3/NS4A heterodimer (D. L. Sali et al, ibid.)). […] Fifty μls of prewarmed protease (12 nM, 30° C.) in assay buffer, is then used to initiate the reaction (final volume 200 μl). The plates are monitored over the length of the assay (60 minutes) for change in absorbance at the appropriate wavelength (340 nm for 3-Np and HMC, 370 nm for PAP, and 400 nm for 4-Np) using a Spectromax Plus microtiter plate reader equipped with a monochrometer (acceptable results can be obtained with plate readers that utilize cutoff filters). Proteolytic cleavage of the ester linkage between the Nva and the chromophore is monitored at the appropriate wavelength against a no enzyme blank as a control for non-enzymatic hydrolysis. The evaluation of substrate kinetic parameters is performed over a 30-fold substrate concentration range (˜6-200 μM). Initial velocities are determined using linear regression and kinetic constants are obtained by fitting the data to the Michaelis-Menten equation using non-linear regression analysis (Mac Curve Fit 1.1, K. Raner). Turnover numbers (kcat) are calculated assuming the enzyme is fully active.
Evaluation of Inhibitors and Inactivators: The inhibition constants (Ki) for the competitive inhibitors Ac-D-(D-Gla)-L-l-(Cha)-C-OH (27), Ac-DTEDWA(Nva)-OH and Ac-DTEDVVP(Nva)-OH are determined experimentally at fixed concentrations of enzyme and substrate by plotting vo/vi vs. inhibitor concentration ([l]o) according to the rearranged Michaelis-Menten equation for competitive inhibition kinetics: vo/vi=1+[l]o/(Ki (1+[S]o/Km)), where vo is the uninhibited initial velocity, vi is the initial velocity in the presence of inhibitor at any given inhibitor concentration ([l]o) and [S]o is the substrate concentration used.
`CC(C)(C)[C@H](NC(=O)NC1(CSc2ccccc2)CCCCC1)C(=O)N1C[C@H]2[C@@H]([C@H]1C(=O)NC(CC1CC1)C(=O)C(N)=O)C2(C)C` (stereo partly drawn) [Compound 102]: the Ki was less than 75 nM.

Staying with this assay, now noted: Table 3, sulfone compounds, rows without Prep. Ex. number; read-out: Ki* (numeric value, unlabelled structures at end of sulfone table, column without head).
`C=CCNC(=O)C(=O)C(CCCC)NC(=O)[C@@H]1[C@@H]2[C@H](CN1C(=O)[C@@H](NC(=O)NC1(CS(=O)(=O)C(C)(C)C)CCCCC1)C(C)(C)C)C2(Cl)Cl` (stereo partly drawn): the Ki was 8 nM.

Staying with this assay, now noted: Table 3, sulfone compounds; HCV serine protease; read-out: Ki* range.
In the case of `C=CCNC(=O)C(=O)C(CC1CC1)NC(=O)[C@@H]1[C@@H]2[C@H](CN1C(=O)[C@@H](NC(=O)NC1(C3CCCS3(=O)=O)CCCCC1)C(C)(C)C)C2(C)C` (stereo partly drawn) [Compound 307], the Ki is less than 75 nM.
As for `CC(C)(C)[C@H](NC(=O)NC1(C2CCCS2(=O)=O)CCCCC1)C(=O)N1C[C@H]2[C@@H]([C@H]1C(=O)NC(CC1CC1)C(=O)C(N)=O)C2(C)C` (stereo partly drawn) [Compound 306], the Ki is less than 75 nM.
Still for that read-out and setting: in the case of `C#CCCC(NC(=O)[C@@H]1[C@@H]2[C@H](CN1C(=O)[C@@H](NC(=O)NC1(CS(=O)(=O)C(C)(C)C)CCCCC1)C(C)(C)C)C2(C)C)C(=O)C(=O)NCCOC` (stereo partly drawn) [Compound 254] it was less than 75 nM.
Turning to `CC1(C)[C@@H]2[C@@H](C(=O)NC(CC3CC3)C(=O)C(N)=O)N(C(=O)[C@@H](NC(=O)NC3(CS(=O)(=O)C(C)(C)C)CCCCC3)C3Cc4ccccc4C3)C[C@@H]21` (stereo partly drawn) [Compound 270], the Ki was less than 75 nM.
On to `C#CCCC(NC(=O)[C@@H]1[C@@H]2[C@H](CN1C(=O)[C@@H](NC(=O)N[C@@](C)(CC(C)C)CS(=O)(=O)C(C)(C)C)C(C)(C)C)C2(C)C)C(=O)C(=O)NCC=C` (stereo partly drawn) [Compound 289], for which the Ki fell in the range of 75 to 250 nM.
In the case of `CC(C)[C@@H](CS(=O)(=O)Cc1ccccc1)NC(=O)N[C@H](C(=O)N1C[C@H]2[C@@H]([C@H]1C(=O)NC(CC1CCC1)C(=O)C(N)=O)C2(C)C)C1CCCCC1` (stereo partly drawn) [Compound 158], the Ki was less than 75 nM.
As for `C=CCCNC(=O)C(=O)C(CC1CCC1)NC(=O)[C@@H]1[C@@H]2[C@H](CN1C(=O)[C@@H](NC(=O)NC1(CS(=O)(=O)C(C)(C)C)CCCCC1)C(C)(C)C)C2(C)C` (stereo partly drawn) [Compound 221], the Ki was less than 75 nM.
The same measure, in the same setting: as for `C=CCNC(=O)C(=O)C(CCCC)NC(=O)[C@@H]1[C@@H]2[C@H](CN1C(=O)[C@@H](NC(=O)N[C@H](CS(=O)(=O)C(C)(C)C)C(C)C)C(C)(C)C)C2(C)C` (stereo partly drawn) [Compound 147], the figure is 75 to 250 nM.

The same assay, now with this note: Table 3A; class symbols; read-out: Ki* Range.
In the case of `CC1([C@H](NC(=O)NC2(CS(=O)(=O)C(C)(C)CF)CCCCC2)C(=O)N2C[C@H]3[C@@H]([C@H]2C(=O)N[C@@H](CCC2CC2)C(=O)C(=O)NC2CC2)C3(C)C)CCCCC1` [Compound 876], the Ki is less than 75 nM.
Take `CCCNC(=O)C(=O)C(CCC1CC1)NC(=O)[C@@H]1[C@@H]2[C@H](CN1C(=O)[C@@H](NC(=O)NC1(CS(=O)(=O)C(C)(C)C)CCCCC1)C1(C)CCCCC1)C2(C)C` (stereo partly drawn) [Compound 501]: the Ki is less than 75 nM.
Consider `C=CCNC(=O)C(=O)C(CCCC(F)F)NC(=O)[C@@H]1[C@@H]2[C@H](CN1C(=O)[C@@H](NC(=O)NC1(CS(=O)(=O)C(C)(C)C)CCCCC1)C1(C)CCCCC1)C2(C)C` (stereo in doubt) [Compound 458], for which the Ki was less than 75 nM.
Regarding `C#CCCC(NC(=O)[C@@H]1[C@@H]2[C@H](CN1C(=O)[C@@H](NC(=O)NC1(CS(=O)(=O)C(C)(C)C)CCCCC1)C1(C)CCCCC1)C2(C)C)C(=O)C(=O)NC1CCCC1` (stereo partly drawn) [Compound 428], the Ki was less than 75 nM.
The same measure, in the same setting: as for `CCCC[C@@H](NC(=O)[C@@H]1[C@@H]2[C@H](CN1C(=O)[C@@H](NC(=O)NC1(CS(=O)(=O)C(C)(C)C)CCCCC1)C(C)(C)C)C2(C)C)C(=O)C(=O)NCC` [Compound 883-an], the figure is greater than 250 nM; as for `CCC(C)(C)S(=O)(=O)CC1(NC(=O)N[C@H](C(=O)N2C[C@H]3[C@@H]([C@H]2C(=O)NC(CC2CC2)C(=O)C(=O)NC2CC2)[C@]3(C)COCc2ccccc2)C2(C)CCCCC2)CCCCC1` (stereo partly drawn) [Compound 537], less than 75 nM.
As to `C=CCNC(=O)C(=O)C(CC1CCC1)NC(=O)[C@@H]1[C@@H]2[C@H](CN1C(=O)[C@@H](NC(=O)NC1(C3CCCS3(=O)=O)CCCCC1)C1(C)CCCCC1)C2(C)C` (stereo partly drawn) [Compound 672], the Ki is less than 75 nM.
On the same count and under the same terms, as for `CCCC[C@H](NC(=O)[C@@H]1[C@@H]2[C@H](CN1C(=O)[C@@H](NC(=O)NC1(CS(=O)(=O)C(C)(C)C)CCCCC1)C1(C)CCCCC1)C2(C)C)C(=O)C(=O)NCc1cccs1` [Compound 883-cf], the figure is less than 75 nM; as for `CC(C)(C)[C@H](NC(=O)NC1(CS(=O)(=O)C(C)(C)CO)CCCCC1)C(=O)N1C[C@H]2[C@@H]([C@H]1C(=O)NC(CCC1CC1)C(=O)C(=O)NC1CC1)C2(C)C` (stereo partly drawn) [Compound 710], less than 75 nM; as for `CCNC(=O)C(=O)[C@H](CCC1CC1)NC(=O)[C@@H]1[C@@H]2[C@H](CN1C(=O)[C@@H](NC(=O)NC1(CS(=O)(=O)C3(C)CCOCC3)CCCCC1)C(C)(C)C)C2(C)C` [Compound 883-du], less than 75 nM.
On to `CCCC[C@@H](NC(=O)[C@@H]1[C@@H]2[C@H](CN1C(=O)[C@@H](NC(=O)NC1(CS(=O)(=O)C(C)(C)C)CCCCC1)C1(C)CCCCC1)C2(C)C)C(=O)C(=O)NCC` [Compound 883-ap], for which the Ki lay within 75 to 250 nM.
Still for that read-out and setting: in the case of `C=CCNC(=O)C(=O)C(CCC1CC1)NC(=O)[C@@H]1[C@@H]2[C@H](CN1C(=O)[C@@H](NC(=O)NC1(CS(=O)(=O)C(C)(C)C)CCCCC1)C1(C)CCCCC1)C2(C)C` (stereo partly drawn) [Compound 417] it was less than 75 nM; in that of `CCC[C@H](NC(=O)[C@@H]1CC2(CN1C(=O)[C@@H](NC(=O)NC1([C@H]3CCCS3(=O)=O)CCCCC1)C1(C)CCCCC1)SCCCS2)C(=O)C(=O)NC1CC1` [Compound 847], less than 75 nM.
Take `CCCC[C@H](NC(=O)[C@@H]1[C@@H]2[C@H](CN1C(=O)[C@@H](NC(=O)NC1([C@H]3OCCS3(=O)=O)CCCCC1)C1(C)CCCCC1)C2(C)C)C(=O)C(=O)NCC` [Compound 883-dl]: the Ki is less than 75 nM.
In the case of `C=C(F)CNC(=O)C(=O)[C@H](CC1CC1)NC(=O)[C@@H]1[C@@H]2[C@H](CN1C(=O)[C@@H](NC(=O)NC1(CS(=O)(=O)C(C)(C)C)CCCCC1)C(C)(C)C)C2(C)C` [Compound 769], the Ki was less than 75 nM.
Consider `C#CCNC(=O)C(=O)[C@H](CCC1CC1)NC(=O)[C@@H]1[C@@H]2[C@H](CN1C(=O)[C@@H](NC(=O)NC1(CS(=O)(=O)C3CCCCC3)CCCCC1)C(C)(C)C)C2(C)C` [Compound 864], for which the Ki is less than 75 nM.
Consider `C=CCNC(=O)C(=O)[C@H](CCCC)NC(=O)[C@@H]1CC2(CN1C(=O)[C@@H](NC(=O)NC1(CS(=O)(=O)C(C)(C)C)CCCCC1)C(C)(C)C)SCCCS2` [Compound 728], for which the Ki was less than 75 nM.
For `CCNC(=O)C(=O)C(CC1CC1)NC(=O)[C@@H]1[C@@H]2[C@H](CN1C(=O)[C@@H](NC(=O)NC1(CS(=O)(=O)C(C)(C)C)CCCCC1)C1(C)CCCCC1)C2(C)C` (stereo partly drawn) [Compound 513], the Ki is less than 75 nM.
On the same count and under the same terms, in the case of `CCCNC(=O)C(=O)[C@H](CC1CC1)NC(=O)[C@@H]1[C@@H]2[C@H](CN1C(=O)[C@@H](NC(=O)NC1(CS(=O)(=O)CCC(C)C)CCCCC1)C1(C)CCCCC1)C2(C)C` [Compound 883-bo] it was less than 75 nM.

Staying with this assay, now noted: Table 4; read-out: Ki* range.
On to `C=CCNC(=O)C(=O)C(CCC)NC(=O)[C@@H]1[C@@H]2[C@H](CN1C(=O)[C@@H](NC(=O)N[C@H](CS(=O)(=O)NC(C)(C)C)C(C)C)C(C)(C)C)C2(C)C` (stereo partly drawn) [Compound 1002], for which the Ki is greater than 250 nM.

Still in this assay, the particulars now being: Table 4A; read-out: Ki* Range.
With `C=CCNC(=O)C(=O)C(CC1CC1)NC(=O)[C@@H]1[C@@H]2[C@H](CN1C(=O)[C@@H](NC(=O)N[C@H](CS(=O)(=O)C1CCC1)C(C)C)C(C)(C)C)C2(C)C` (stereo partly drawn) [Compound 1107], the Ki was less than 75 nM.

Still in this assay, the particulars now being: Table 5; read-out: Ki*.
`C=CCNC(=O)C(=O)C(CC1CC1)NC(=O)[C@@H]1C2[C@H](CN1C(=O)[C@@H](NC(=O)NC1(CS(=O)(=O)C(C)(C)C)CCCCC1)C1CCCCC1)C2(C)C` (stereo partly drawn): the Ki came out at 4.1 nM.
On the same count and under the same terms, in the case of `C#CCCC(NC(=O)[C@@H]1C2[C@H](CN1C(=O)[C@@H](NC(=O)NC1(CS(=O)(=O)C(C)(C)C)CCCCC1)C1CCCCC1)C2(C)C)C(=O)C(=O)NCC1CC1` (stereo partly drawn) it was 19 nM.

The values are drawn from patent US8067379B2, “Sulfur compounds as inhibitors of hepatitis C virus NS3 serine protease” (Schering Corporation, priority 2004, dated 2011).
